This is one part of the list.
B1: chr1:133183185:133183186:-_ENSMUSG00000026425_ENSMUST00000097588|mus_hu|FALSE|FALSE (ssRNA)
RNA: GGGAGUUCUACAGUCCGACGAUCUGAGUGACAGUCUUAGGUUCACACAAAGCAUCUCCAAGCAUACAUACAAUAUUCCAGUUAUCAACACUAUUUUAAAGAAUAUACCAUUUUACACAAAUGUGACAUACAAGUCAGACGCCACAACAGAGGAUUGAGCAUCA
B2: chr15:75756842:75756843:-_ENSMUSG00000022570_ENSMUST00000023231|mus_mus|FALSE|FALSE (ssRNA)
RNA: GGGAGUUCUACAGUCCGACGAUCUAGCACGUGGCCAUCUUCGAUGUUGAAGUUGUCAUAAGGCCCAAAGACAUUGGUAGGGAUGACGGCGGUGAAGGUACAGCCGUGCUGCUGGAAGUAGGCUCUGUUCUGCACGUCAAUCAUCAACAGAGGAUUGAGCAUCA
B3: chr19:54062153:54062154:+_ENSMUSG00000024976_ENSMUST00000025932|mus_mus|FALSE|FALSE (ssRNA)
RNA: GGGAGUUCUACAGUCCGACGAUCUUGGCAGACGGUACUUUGGGGUCUUUCUCUUUAGAGUCUUUUUCUUUUCCUAAACUACUACUCAUGGUGACUCAAGCUUCACUCAAACACUACAUGAACUCCUCCUCCUCGCCAGCAAUCCAACAGAGGAUUGAGCAUCA
B4: 88005186_88005763_3840_CDS_ENSMUSG00000038368_ENSMUST00000097992|mouse|control|control (ssRNA)
RNA: GGGAGUUCUACAGUCCGACGAUCAAGGGCAGCCAGACAGAGCAUGGUGGGGGCACCCUCUGUCAGGACAACUUUAAUCCAGCUGGGGCGAAGUCUGUUGCCCAAGUCUUCAGCUUUUCCAUGUCCACACACAGACAAACCAUACAACAGAGGAUUGAGCAUCA
B5: chr10:33214929:33214930:-_ENSG00000150093_ENST00000302278|hu_hu|hu_hu_hu_mus_True|28_78 (ssRNA)
RNA: GGGAGUUCUACAGUCCGACGAUCAACAAGUUCAUUGAAAAACUCUCCUCUGUCAGUAAGACUGAGCACAUUUUUGUAGCUAAAUGGGCUGGUGCAGUUUUGUUCACUUGUGCAAGGAUUUCUUAGCUUUGCUGGGGUUGUGCUCAACAGAGGAUUGAGCAUCA
B6: chr19:41288841:41288842:-_ENSMUSG00000025016_ENSMUST00000025989|mus_hu|motif|central (ssRNA)
RNA: GGGAGUUCUACAGUCCGACGAUCUAAAUCUCAAAAUGUUUAAUAAAAACAAGUAUCUUCUCCAUUUAACACUUUGCUUUCGGACUGUACAGUAAAUUGCAUUGUAGAGAGUACACUUCUGUCUUCAAACUGUAUCUUCUUUGGCAACAGAGGAUUGAGCAUCA
B7: chr12:105536279:105536280:+_ENSG00000136051_ENST00000332180|hu_mus|hu_hu_hu_mus_True|18_48 (ssRNA)
RNA: GGGAGUUCUACAGUCCGACGAUCAGCACUGAACAUGUAAUGUAAUCUGGCUGCAUCGACAGCAUUUUCAUAUACAUCAUCUAAAUAAAUUGGGAAGACAGCGCGAUGCCAGUAUAAAAAACAACAGUCACACUGUGCUUGGACCAACAGAGGAUUGAGCAUCA
B8: chr2:198351390:198351391:-_ENSG00000144381_ENST00000345042|hu_hu|hu_hu_hu_mus_False|38_48 (ssRNA)
RNA: GGGAGUUCUACAGUCCGACGAUCUCAUUCCCACCCUCCACAGAAAGGCUGCUUCUGAACUCUCAUGUGGUGACACAGCGCUACAGUCCUGAUUUUAACAGAAUAGUAGAGAUGCCUCAGUGAUUUAAGUUGAAAGCAGGACACCAACAGAGGAUUGAGCAUCA
B9: chr3:10015032:10015033:+_ENSMUSG00000027533_ENSMUST00000029046|mus_hu|motif|central (ssRNA)
RNA: GGGAGUUCUACAGUCCGACGAUCGUUUUUACCAUCACAAGUGAUGAUACAAUCUGGCUUGGCCAUUGCGCCCAUUUUUCGCAAAGCGGUUCCCACUCCUAGCUCCUUCAUGUAUUCAUCAAAGCCUUUGCUGUCCACCAGGCGCAACAGAGGAUUGAGCAUCA
B10: chr17:13112271:13112272:+_ENSMUSG00000068039_ENSMUST00000151287|mus_mus|FALSE|FALSE (ssRNA)
RNA: GGGAGUUCUACAGUCCGACGAUCAAUCAGGUUCUCAUUGAUAUAACGCACCGCUUCCUUGCAGGCAAGACGAUAGCCACUAAUAACUGAUGUUGGAUGAAUUUUCUGUUUGACUAGCUCAUCUGCAUUUUUCAGAAGCUCCGCCAACAGAGGAUUGAGCAUCA
B11: chr12:21621489:21621490:+_ENSG00000121350_ENST00000240651|hu_hu|motif|central (ssRNA)
RNA: GGGAGUUCUACAGUCCGACGAUCGACUUUGAUGUAUUCUCGUCCUUUGGUACAUCUCAGCAUUAAUUCAUGAUCUGAACCGGAGCCCUGUGCAUUGUAUUUUCCCAGCAGUACAACCUUAUAGUUAAAAAAUUUUGUCACAUGCAACAGAGGAUUGAGCAUCA
B12: chr1:58468927:58468928:-_ENSMUSG00000026034_ENSMUST00000148330|mus_mus|mus_mus_mus_hu_False|18_18 (ssRNA)
RNA: GGGAGUUCUACAGUCCGACGAUCAAUUACUGAAAAAGAUGUUCAUUACCUUAGCUAUGUACUUAAUGAACCAAAUUACCCAAACAAAAUAAACAUGGCAAUAUAAAAAUGUUAAGAAAAUAACUUACUGUACAAAAUAACUUACAACAGAGGAUUGAGCAUCA
B13: chr4:41258970:41258971:+_ENSG00000154277_ENST00000284440|hu_mus|FALSE|FALSE (ssRNA)
RNA: GGGAGUUCUACAGUCCGACGAUCAGCUGCAUCUUCGCGGAUGGCACCUGCAGACACAAACCCGAGGAGCCGAAAAAACAGCCGGUGGAGCCGCCCAGGCUGCUGUUAUAAAGCGCCGGCCUCGCUCACUGGGAAAGCCUGAGCCAACAGAGGAUUGAGCAUCA
B14: chr18:48606039:48606040:+_ENSG00000141646_ENST00000342988|hu_hu|motif|central (ssRNA)
RNA: GGGAGUUCUACAGUCCGACGAUCACAUAUUGUGUCUGUGGUACAGUCAAUACAUCUGCAACUUUUCUACUUAAAUUCUCGGUACAAAGUCACUGCCAAUUGAUAUGAUCAUUGAUGGCAAAGGGCUUAGAAUAACCAAAAGAUCAACAGAGGAUUGAGCAUCA
B15: chr7:54823571:54823572:-_ENSG00000132432_ENST00000352861|hu_mus|hu_hu_hu_mus_False|28_58 (ssRNA)
RNA: GGGAGUUCUACAGUCCGACGAUCUCCCAUGAUAGCAAAUCCUAUAGCUGUAGCCAUGGCAAUCUUCUGGAAUUCUUUUCUAUCAGGUUUGGUGCAUCUUUUAACCAGCCGAAUGGAGUCCUUUACAAACUGCCGGCUGGGCUCCAACAGAGGAUUGAGCAUCA
B16: chr2:120799606:120799607:+_ENSG00000115109_ENST00000263713|hu_hu|motif|central (ssRNA)
RNA: GGGAGUUCUACAGUCCGACGAUCGUACAUAAUCUGAUCAAACAACUCUUGUCCUUUGGCUUUUUUUGGCAAGUCCACACGGACAUCAGUACCAUCCAGAAGGGACACCCGACACGUGAUGAUGGACUUAGAAUCUCCAGCUGCCAACAGAGGAUUGAGCAUCA
B17: chr12:111867003:111867004:+_ENSMUSG00000018707_ENSMUST00000018851|mus_mus|FALSE|FALSE (ssRNA)
RNA: GGGAGUUCUACAGUCCGACGAUCUACCAACAUGUUUAUCUUCAUGUAGCCUUUCAGCAGCCUCUGAACAAACUCAUAGGAAGCAUACUGCCGAAGCCUCGCAGGGAAGUUCUUCAGCUGGUUCAAGAGGCCGUCUAGGUUUUGCAACAGAGGAUUGAGCAUCA
B18: 8830324_8830444_192_5pUTR_ENSMUSG00000022507_ENSMUST00000023150|mouse|control|control (ssRNA)
RNA: GGGAGUUCUACAGUCCGACGAUCGCCCAGGCCUCUGUGCAAGCCCGCGGAGCCGGCACCCACCCCGCACAGCCCGAGUCCUCUGCCCACCAACCCCGCUCCGAGGUGCCGCACCCUGCCCUAGCCUCGCCCGCACCCCUUUACCAACAGAGGAUUGAGCAUCA
B19: 111065425_111065545_1520_3pUTR_ENSG00000134986_ENST00000257435|human|control|control (ssRNA)
RNA: GGGAGUUCUACAGUCCGACGAUCAAUUUAUUUUUGUUUAUCCAUUUCGUUGGGAGCAAGGACAAAAAUGUAAAUCUACACCUUGCUUAUCAAAAUUGCCGAAAAAAGAAUGCUCUGCCUUUUAAAAAAGUAUCAUGAUUUUGUCAACAGAGGAUUGAGCAUCA
B20: chr2:112102183:112102184:+_ENSMUSG00000027133_ENSMUST00000028553|mus_mus|FALSE|FALSE (ssRNA)
RNA: GGGAGUUCUACAGUCCGACGAUCUGCUCGUUGAGGUAAUAUUGGAGAAACAUAACUGCCCUCAGCAAAAAGACACACGUACUACCGCCAGCCGCGUUUACUCCGAGUGCGCCGCUUCAAUCGCGUGCGCCAACAACCUUCCAGCAACAGAGGAUUGAGCAUCA
B21: chr15:81535460:81535461:-_ENSMUSG00000022391_ENSMUST00000052374|mus_hu|FALSE|FALSE (ssRNA)
RNA: GGGAGUUCUACAGUCCGACGAUCAGAAGACGUUAAAACCCAAAUCCCGACAGGAGGCACAGACCUGCACAUGCGCCACACCCACACACAUACUCAGGGGACUGACAGGACACAUGGGACACAGACCCGCCCUGCCUGUGGCCACAACAGAGGAUUGAGCAUCA
B22: chr6:31635678:31635679:+_ENSG00000204435_ENST00000375882|hu_hu|FALSE|FALSE (ssRNA)
RNA: GGGAGUUCUACAGUCCGACGAUCCAAGAUCAUGUCUAGAGCUUGUCGAUAGUGAGGGACCUGCUCAUUGAGUCCAGUAAGAUUAAAUUUGUCCUGGAUGUAGUCUUCAUCCACUUCACAGAAGAAUUCAUUGCCACGGAGCCCCAACAGAGGAUUGAGCAUCA

Biological target: T1, UNK ZnF1-3 (human, UniProt Q9C0B0 31-174)
T1 sequence: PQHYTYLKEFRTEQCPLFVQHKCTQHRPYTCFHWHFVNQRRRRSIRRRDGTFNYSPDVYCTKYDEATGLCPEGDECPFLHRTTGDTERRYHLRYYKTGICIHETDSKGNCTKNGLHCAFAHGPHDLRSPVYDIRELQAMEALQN
Test: nsRBNS (natural sequence RNA bind-n-seq); RBNS binding buffer (assumed for nsRBNS): 25 mM Tris pH 7.5, 150 mM KCl, 3 mM MgCl2, 0.01% Triton X-100, 500 ug/ml BSA, 20 U/ml SUPERase-In, 4 C; UNK is unkempt and MSI1 is Musashi-1; names of the RNAs are library labels; protein concentration not given here; high values mean tight binding

| Binder | binding signal |
| --- | --- |
| B1 | 1.38 enrichment R |
| B2 | 0.81 enrichment R |
| B3 | 0.758 enrichment R |
| B4 | 0.994 enrichment R |
| B5 | 1.1 enrichment R |
| B6 | 0.577 enrichment R |
| B7 | 2.25 enrichment R |
| B8 | 1.3 enrichment R |
| B9 | 0.776 enrichment R |
| B10 | 0.986 enrichment R |
| B11 | 1.17 enrichment R |
| B12 | 3.06 enrichment R |
| B13 | 1.88 enrichment R |
| B14 | 0.816 enrichment R |
| B15 | 0.892 enrichment R |
| B16 | 0.976 enrichment R |
| B17 | 0.594 enrichment R |
| B18 | 1.45 enrichment R |
| B19 | 1.35 enrichment R |
| B20 | 0.907 enrichment R |
| B21 | 1.1 enrichment R |
| B22 | 0.981 enrichment R |

From article PMC12136788
